Source: the RNAGym collection of RNA variant scans (doi:10.1093/nar/gkz1192)
The source gives no read counts; variants with many changes may rest on few reads.

B1: CPEB3 Ribozyme (parent)
chain: UAACAGGGGGCCACAGCAGAAGCGUUCACGUCGCAGCCCCUGUCAGAUUCUGGUGAAUCUGCGAAUUCUGCUGUAUAUCUC

Variants of: B1
Test: self-cleavage, relative activity (ratio to wild type); higher = more cleavage; in vitro, sequencing
Procedure, shortened: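 CPEB3 self-cleaving ribozyme mutant libraries were made by rounds of error-prone PCR, barcoded, and transcribed in vitro with T7 RNA polymerase for 5 hours at 37°C. Cleavage occurred during transcription and a 15 min DNase I step before EDTA stop. RNAs were reverse transcribed with template switching and Illumina-sequenced, with DNA sequencing mapping barcodes to variants. Relative activity is the variant's cleaved/total read fraction divided by wild type's (minimum 5 reads), averaged across three batches.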

Row | Variant | self-cleavage
1 | UAACAGGGGGCCGCAGCAGAAGCGUUCACGUCGCAGCCCCUGUCAGAUUCUGGUGAAUCAGCGAAUUCUGCCGUAUAUCUC | 0.33
2 | UAACAGGGGGCCUCAGCCGAAGCGUUCACGUCGCAGCCCCUGUCAGAUUCUGGUGAAUCUGCGAAUACUGCUGUAUAUCUC | 0.22
3 | UAACAGGGGGCCUCAGCGGAAGCGUUCACGUCGCAGCCCCCGUCAGAUUCUGGUGAAUCUGCGAAUUCUGCUAUAUAUCUC | 1.18
4 | UAACAGGGGGCCGCAGCAGAAGCGUUCACGUCGCAGCCCCUGUCAGAUUCUGGAGAAUCUGCGGAUUCUGCUGUAUAUCUC | 0.7
5 | UAACAGGGGGCCGCAGCAGAAGCGUUCACGUCGCAGCCCCUGUCAGAUUCUGGAGAGUCUGCGAAUACUGCUGUAUAUCUC | 0
6 | UAACAGGGGGCCGCAGCAGAAGCGUUCACGUCGCAGCCCCUGUCAGAUUCCGGUGAAUCUGCGAAUUCUGCUGUAUAUCCC | 0.81
7 | UAACAGGGGGCCGCAGCAGAAGCGUUCACGUCGCAGCCCCUGUCAGAUUCAGGUGGAUCUGCGAAUUCUGCUGUAUAUCUC | 0.53
8 | UAACAGGGGGCCUCGGCAGAAGCGUUCACGUCGCAGCCCCUGUCGGAUUCUGGUGAAUCUGCGAAUUCUGCUGUAUAUCCC | 1.01
9 | UAACAGGGGGCCUCAGCGGAAGCGUUCACGUCGCAGCCCCUGUCAGAUUCUGGUGAAUCAGCGAAUUCUGCUGUAUAUCCC | 0.41
10 | UAACAGGGGGCCUCGGCAGAAGCGUUCACGUCGCAGCCCCCGUCAGAUUCUGGUGAAUCCGCGAAUUCUGCUGUAUAUCUC | 0.35
11 | UAACAGGGGGCCUCGGCAGAAGCGUUCACGUCGCAGCCCCUGUCAGAUUCUGGUGGAUCUGCGAAUUCUGCUGUAUACCUC | 0.93
12 | UAACAGGGGGCCUCAGCUGAAGCGUUCACGUCGCAGCCCCUGUCAGAUUCUGGUGGAUCUGCGCAUUCUGCAGUAUAUCUC | 0.18
13 | UAACAGGGGGCCUCGGCAGAAGCGAUCACGUCGCAGCCCCUGCCGGAUUCUGGUGAUUCUGCGAAUUCUGCUGUAUAUCUC | 0.04
14 | UAACAGGGGGCCGCAGCAGAAGCGUUCACGUCGCAGCCCCUGUCAGAUUCCGGUGAAUCUGCGAAUUAUGCUGUAUAUCUC | 0.33
15 | UAACAGGGGGCCUCUGCAGAAGCGUUCACGUCGCAGCCCCUGUCAGAUUCUGGUGAAUCCGCGAAUUCUGCUGUAUAUCUC | 0.12
16 | UAACAGGGGGCCUCGGCAGAAGCGCUCACGUCGCGGCCCCUGUCAGAUUCUGGUGAAUCUGCGAAUUCUGCAGUAUAUCUC | 0.04
17 | UAACAGGGGGCCGCAGCAGAAGCGUUCACGUCGCAGCCCCUGUCAGAUUCCUGUGGAUCUGCGUAUUCUGCUGUAUAUCUC | 0.19

Row | Variant | self-cleavage
18 | UAACAGGGGGCCUCAGCGGAAGCGUCCACGUCGCAGCCCCUGUCAGAUUCUGGUGAAUCCGCGAAUUCUGCUGUAUAACUC | 0.12
19 | UAACAGGGGGCCGCAGCAGAAGCGUUCACGUCGCAGCCCCUGUCAGAUUCUGGGGAAUCUGCGAAUUCUGCUGAAUAUCUC | 1.11
20 | UAACAGGGGGCCGCAGCAGAAGCGUUCACGUCGCAGCCCCUGUCAGAUUCCGGUGAAUCUGCGAAUUCUGCUACAUAUCUC | 1.34
21 | UAACAGGGGGCCUCGGCAGAAGCGAUCACGUCGCAGCCCCUGUCAGAUUCUGGUGAAUCAGCGAAUUCAGCUGUAUAUCUC | 0.01
22 | UAACAGGGGGCCUCUGCAGAAGCGUUCACGCCGCAGCCCCCGUCAGAUUCUGGUGAAUCUGCGAAUUCUGCUGUAUAUCUC | 0.59
23 | UAACAGGGGGCCGCAGCAGAAGCGUUCACGUCGCAGCCCCUGUCAGAUUCUGGUGAAUCCGCGAAUUCUGCUGUAUACCUC | 0.38
24 | UAACAGGGGGCCUCAGCGGAAGCGUUCACGUCGCAGCCCCUGUCAGAUUCUGGGGAAUCUGCGAAUUCUGCUGUAUAUCUC | 0.62
25 | UAACAGGGGGCCUCGGCAGAAGCGUUCGCGUCGUAGCCCCUGUCAGAUCCUGGUGAAUCUGCGAAUUCUGCCGUAUUUCUC | 0.07
26 | UAACAGGGGGCCUCGGCUGAAGCGUUCACGUCGCAGCACCAGUCAGAUUCUGGUGAAUCUGCGAAUUAUGCUGUAUAUCUU | 0.04
27 | UAACAGGGGGCCUCCGCAGAAGCGUUCACGUCGCAGCCCCUGUCAGAUUCUGGUGAAUCUGCGAACUCUGCUGUAUAUCUC | 0.18
28 | UAACAGGGGGCCUCAGCAGCAGCGCUCACGUCGCAGCCCCUGUCAGGUUCUGGUGAACCUGCGAAUUCUGCUGUAUAUCUC | 0.23
29 | UAACAGGGGGCCUCAGCGGAAACGCUCACGUCGCAGCCCCUGUCAGAUUCCGGCGAAUCUGCGAAUUCUGCUGUAUAUCUC | 0.07
30 | UAACAGGGGGCCUCUGCAGAAGCGUUCACGUCGCAGCCCCUGUCAGAUUCUGGUGAAUCUGCGGAUUCUGCUGUAUAUCUC | 0.6
31 | UAACAGGGGGCCUCGGCAGAGGCGUUCACGUCGCAGCCCCUGUCAGAUACUGGUGAAUCUGCGAAUUCUGCUGUAUAUCUC | 0.1
32 | UAACAGGGGGCCUCUGCAGAAGCGUUCACGUCGCAGCCCCAGUCAGAUUCUGGUGAAUCUGCAAAUCCUGCUGUAUAUCUC | 0.49
33 | UAACAGGGGGCCGCAGCAGAAGCGUUCACGUCGCAGCCCCUGUCAGAUUCUGGUGAAUCUGCGAAUUCUGCUGCAUAUCAC | 0.8
34 | UAACAGGGGGCCGCAGCAGAAGCGUUCACGUCGCAGCCCCUGUCAGAUUCGGGUGAACCUGCGAAUUCUGCUGUAUAUCUC | 0.22
